The text below walks through data of the antibiotic and cytotoxicity screens of Wong et al. (2023).

Molecules are shown by their SMILES. This is one part of the list.

The test system of one experiment is HSkMC. Nature of the experiment: cytotoxicity call (relative viability < 0.9). The note with it: 10 µM.
The test system of a further experiment is S. aureus RN4220. Nature of the experiment: growth inhibition call (relative growth <= 0.2). Conditions: 50 µM.

As to `C[C@@H]1CN([C@@H](C)CO)C(=O)Cc2cc(NC(=O)Nc3ccc4c(c3)OCO4)ccc2O[C@@H]1CN(C)Cc1ccc(Cl)c(Cl)c1`, the cytotoxicity call in the experiment on HSkMC was “inactive”. Further, in the experiment with S. aureus RN4220, the growth inhibition call is “inactive”.
Take `Cc1noc(C)c1NC(=O)Nc1ccc2c(c1)C(=O)N([C@H](C)CO)C[C@@H](C)[C@H](CN(C)C(=O)Nc1ccc(C(F)(F)F)cc1)OCCCC[C@H](C)O2`: the cytotoxicity call with HSkMC is “inactive”. Further, in the experiment on S. aureus RN4220, the growth inhibition call was “inactive”.
With `C[C@@H]1CN([C@@H](C)CO)C(=O)Cc2cc(NC(=O)Nc3ccccc3)ccc2O[C@H]1CN(C)Cc1ccc(Oc2ccccc2)cc1`, the cytotoxicity call in the experiment on HSkMC was “inactive”. Moreover, the growth inhibition call with S. aureus RN4220 was “inactive”.
For the compound `c1ccc(-c2nc3ccccc3o2)cc1`, the cytotoxicity call in the experiment with HSkMC is “inactive”. Moreover, the growth inhibition call with S. aureus RN4220 was “inactive”.
As for `COc1ccc(NC(=O)N(C)C[C@@H]2OCCCC[C@H](C)Oc3ccc(NS(=O)(=O)c4ccc(Cl)cc4)cc3C(=O)N([C@H](C)CO)C[C@@H]2C)cc1`, the cytotoxicity call in the experiment with HSkMC was “inactive”. Besides, the growth inhibition call in the experiment with S. aureus RN4220 was “inactive”.
Take `Cc1ccc(S(=O)(=O)N(C)C[C@@H]2Oc3ccc(NS(=O)(=O)c4c(C)noc4C)cc3C(=O)N([C@H](C)CO)C[C@H]2C)cc1`: in the experiment on HSkMC, the cytotoxicity call is “inactive”. The growth inhibition call in the experiment with S. aureus RN4220 is “inactive”.
`CCS(=O)(=O)Nc1ccc2c(c1)C(=O)N(C)C[C@@H](OC)[C@H](C)CN(Cc1cccnc1)[C@H](C)CO2`: the cytotoxicity call with HSkMC was “inactive”. In addition, the growth inhibition call in the experiment with S. aureus RN4220 is “inactive”.
Take `Cc1noc(C)c1S(=O)(=O)Nc1ccc2c(c1)C(=O)N([C@H](C)CO)C[C@H](C)[C@@H](CN(C)C(=O)Nc1cccc3ccccc13)OCCCC[C@@H](C)O2`: in the experiment with HSkMC, the cytotoxicity call was “inactive”. Moreover, the growth inhibition call with S. aureus RN4220 was “inactive”.
For the compound `C[C@@H]1CN([C@@H](C)CO)C(=O)c2c(c3ccccc3n2C)-c2ccccc2CO[C@@H]1CN(C)Cc1ccccc1`, the cytotoxicity call with HSkMC is “inactive”. Besides, the growth inhibition call in the experiment on S. aureus RN4220 is “inactive”.
On to `C[C@@H]1CN([C@@H](C)CO)C(=O)c2cccc(NC(=O)Nc3ccccc3)c2O[C@H]1CN(C)Cc1ccc(-c2ccccc2)cc1`, for which the cytotoxicity call in the experiment on HSkMC was “active”. Besides, the growth inhibition call with S. aureus RN4220 was “inactive”.
`CCC(=O)c1ccc(O)cc1`: the cytotoxicity call with HSkMC is “inactive”. The growth inhibition call in the experiment on S. aureus RN4220 was “inactive”.
For `CCc1nc2ccc(C(=O)Nc3cc(-c4ccccc4)ccc3OC)cn2c1N(C)CCCc1ccccc1`, the cytotoxicity call in the experiment on HSkMC was “inactive”. In addition, in the experiment with S. aureus RN4220, the growth inhibition call was “inactive”.
Regarding `CC1(C)C=Cc2cc3ccc(=O)oc3cc2O1`, in the experiment on HSkMC, the cytotoxicity call is “inactive”. Further, in the experiment with S. aureus RN4220, the growth inhibition call was “inactive”.
For the compound `O=C1N[C@@H](c2ccccc2)COCc2cn(nn2)CC[C@@H](Cc2ccc(C(F)(F)F)cc2)C(=O)N[C@@H](c2ccccc2)COCc2cn(nn2)CC[C@H]1Cc1ccc(C(F)(F)F)cc1`, the cytotoxicity call in the experiment on HSkMC is “inactive”. The growth inhibition call in the experiment on S. aureus RN4220 is “inactive”.
As for `CC(C)NC(=O)N(C)C[C@H]1Oc2ccc(NC(=O)C3CCCCC3)cc2CC(=O)N([C@H](C)CO)C[C@H]1C`, the cytotoxicity call with HSkMC is “inactive”. Besides, the growth inhibition call in the experiment with S. aureus RN4220 was “inactive”.
With `C[C@@H]1CN([C@@H](C)CO)C(=O)c2c(c3ccccc3n2C)-c2ccccc2CO[C@H]1CN(C)S(C)(=O)=O`, in the experiment with HSkMC, the cytotoxicity call is “inactive”. For the same compound, in the experiment with S. aureus RN4220, the growth inhibition call was “inactive”.
On to `C[C@H]1CN([C@@H](C)CO)C(=O)c2cc(NS(=O)(=O)c3ccc(Cl)cc3)ccc2O[C@H]1CN(C)Cc1ccc(C(=O)Nc2ccccc2N)cc1`, for which the cytotoxicity call in the experiment with HSkMC was “inactive”. Besides, the growth inhibition call with S. aureus RN4220 was “inactive”.
`C[C@@H]1CN([C@@H](C)CO)C(=O)c2cccc(NC(=O)C3CCOCC3)c2O[C@@H]1CN(C)S(=O)(=O)c1ccccc1`: the cytotoxicity call with HSkMC is “inactive”. The growth inhibition call in the experiment with S. aureus RN4220 is “inactive”.
On to `Cc1noc(C)c1S(=O)(=O)N(C)C[C@@H]1OCCCC[C@@H](C)Oc2ccc(NC(=O)Nc3ccccc3)cc2C(=O)N([C@H](C)CO)C[C@H]1C`, for which the cytotoxicity call with HSkMC is “inactive”. Moreover, the growth inhibition call in the experiment on S. aureus RN4220 was “inactive”.
Consider `CO[C@@H]1CN(C)C(=O)c2cc(NS(=O)(=O)c3ccccc3)ccc2OC[C@H](C)N(C(=O)NC(C)C)C[C@H]1C`, for which the cytotoxicity call with HSkMC was “inactive”. For the same compound, in the experiment on S. aureus RN4220, the growth inhibition call was “inactive”.
In the case of `O=c1oc2ccccc2c(O)c1Cc1c(O)c2ccccc2oc1=O`, in the experiment on HSkMC, the cytotoxicity call is “inactive”. In the experiment on S. aureus RN4220, the growth inhibition call is “active”.
Turning to `COCCOC(=O)N1C(=O)[C@@]2(c3cc(C#CC4=CCCCC4)ccc31)[C@H](c1ccccc1OCCO)N1[C@H](c3ccccc3)[C@H](c3ccccc3)OC(=O)[C@H]1[C@@H]2C(=O)N1CCc2cc(OC)c(OC)cc2C1`, the cytotoxicity call in the experiment with HSkMC was “inactive”. The growth inhibition call with S. aureus RN4220 is “inactive”.
With `C[C@@H]1CN([C@@H](C)CO)C(=O)c2cccc(NC(=O)Nc3ccc(C(F)(F)F)cc3)c2O[C@H]1CN(C)C(=O)Nc1ccc(C(F)(F)F)cc1`, in the experiment on HSkMC, the cytotoxicity call was “inactive”. In addition, in the experiment on S. aureus RN4220, the growth inhibition call was “inactive”.
As for `COc1ccc([Si](C)(C)[C@H]2[C@H](CCn3cc(CCO)nn3)O[C@@]3(C(=O)N(C)c4ccccc43)[C@@H]2C)cc1`, the cytotoxicity call in the experiment with HSkMC was “inactive”. In addition, the growth inhibition call with S. aureus RN4220 is “inactive”.
`C[C@@H]1CCCCO[C@@H](CN(C)Cc2ccc3c(c2)OCO3)[C@H](C)CN([C@@H](C)CO)C(=O)c2cc(NC(=O)Nc3ccc4c(c3)OCO4)ccc2O1`: the cytotoxicity call with HSkMC was “inactive”. Also, the growth inhibition call in the experiment with S. aureus RN4220 is “inactive”.
As to `COc1ccc2c3c([nH]c2c1)[C@@H](CO)N(CC1CCCCC1)C[C@]13CCN(CC1)C(=O)Nc1cccc(c1)F`, in the experiment with HSkMC, the cytotoxicity call is “active”. Also, in the experiment with S. aureus RN4220, the growth inhibition call is “inactive”.
On the same counts, the results for `C[C@H](CO)N1C[C@H](C)[C@@H](CN(C)Cc2ccc(-c3ccccc3)cc2)Oc2ccc(NS(=O)(=O)c3ccccc3)cc2CC1=O` are “inactive” and “inactive”.
On the same counts, the results for `O=C(C[C@@H]1CC[C@H]2[C@@H](COC[C@@H](O)CN2C(=O)Nc2ccc(C(F)(F)F)cc2)O1)NCCc1ccncc1` are “inactive” and “active”.
Regarding `C[C@H](CO)N1C[C@H](C)[C@@H](CN(C)Cc2ccc(Cl)c(Cl)c2)Oc2ccc(NS(=O)(=O)c3ccccc3)cc2CC1=O`, the cytotoxicity call with HSkMC was “inactive”. In the experiment with S. aureus RN4220, the growth inhibition call was “inactive”.
Consider `C[C@@H]1CN([C@@H](C)CO)C(=O)c2cccc(NS(=O)(=O)c3cn(C)cn3)c2O[C@H]1CN(C)C(=O)NC1CCCCC1`, for which the cytotoxicity call in the experiment on HSkMC (human skeletal muscle cells) is “inactive”. Besides, in the experiment with S. aureus RN4220, the growth inhibition call is “inactive”.
